# Assay results from PubChem BioAssay (NCI).
# Where “and” joins values, the source holds several entries; their conditions need not be identical. Identical values can stand only once.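 Cultured in 96-well plates, cells were exposed to test compound for 48 hours across five concentrations. Abbreviation: GI50, concentration required for 50% inhibition of growth. At the TGI there is no net growth.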
# Tested on: NCI-H322M lung
# Experiment: NCI tumour cell line growth inhibition, 48 h
SMILES,TGI,GI50
Cc1nc2ccc(Br)cc2c(=O)n1-c1nnc(C(C)(C)C)s1,> 10 µM,
CCOC(=O)C(NC(=O)Nc1ccc(C)cc1)(OCC)C(F)(F)F (centres undefined),> 100 µM,
CC12C=CC(C)(C3C(=O)C4C(C(=O)C31)C1(C)C=CC4(C)S1=O)S2=O (centres undefined),> 100 µM,
Clc1ccc(CCN(CCc2ccc(Cl)c(Cl)c2)CCN2CCCC2)cc1Cl,5.85 µM,
C[C@]12CC=CC(=O)[C@@]1(C)CCC(=O)C2,> 100 µM,
COC1OC(CS(=O)(=O)O)C(O)C(O)C1O (centres undefined),> 100 µM,
Cn1c(Cl)c(/C=C2/C(=O)Nc3ccccc32)c2ccccc21,29.9 µM,1.95 µM
O=C1NC(=S)S/C1=C/c1ccc2c(c1)OCO2,> 100 µM,41.8 µM
Cc1ccc(S(=O)(=O)N/N=C2\CCCCC23CCC(=O)NC3)cc1 (centres undefined),> 100 µM,
Cc1cc(C)nc(NS(=O)(=O)c2ccc(Nc3c4ccccc4nc4ccc(C(=O)Nc5ccc(S(N)(=O)=O)cc5)cc34)cc2)n1,> 100 µM,
O=C(CSc1nnc(-c2ccccn2)s1)N/N=C/c1ccccc1,> 100 µM,
CCCCCCCCCCCCCP(=O)(O)O,> 100 µM,
Nc1ncc(-c2cnn(C3CCNCC3)c2)cc1-c1nc2cc(Cl)ccc2o1,3.4 µM,1.84 µM
COC(=O)c1ccc2[nH]c(O)c(C(=Nc3ccc(N(C)C(=O)CN4CCN(C)CC4)cc3)c3ccc4c(c3)OCO4)c2c1,4.04 µM,0.908 µM
CC(=O)C(C(c1ccccc1)N1CCOCC1)N1CCOCC1 (centres undefined),> 100 µM,
COc1ccc(Cn2c3c(cc(OC(C)=O)c2=O)Cc2ccccc2-3)cc1,49.3 µM,
Cc1c(N2C(=O)C(Cl)C2/C=C/c2ccccc2)c(=O)n(-c2ccccc2)n1C (centres undefined),56.2 µM,
Cc1ccc(C(=O)N/N=C(\N=Nc2cccc([N+](=O)[O-])c2)c2ccc(N(CCC#N)CCC#N)cc2C)cc1,> 100 µM,
COc1ccc2c(c1)OC1=C(C(=O)OC1)C2c1cc(OC)c2c(c1)OCCO2 (centres undefined),> 100 µM,> 100 µM
COc1ccc2nc3cc(Cl)ccc3c(Sc3ccc([N+](=O)[O-])cc3C)c2c1,> 100 µM,
C=CC(=O)N1CCC(Oc2cc3c(Nc4ccc(Cl)c(Cl)c4F)ncnc3cc2OC)CC1,14.1 µM and > 10 µM,< 0.001 µM
Cc1cccc(Cl)c1NCC(O)CN1CCN(C)CC1 (centres undefined),> 100 µM,
CN(C)C/C=C/C(=O)Nc1ccc(C(=O)N[C@@]2(C)CCC[C@@H](Nc3ncc(Cl)c(-c4c[nH]c5ccccc45)n3)C2)nc1,1.14 µM,0.0214 µM
COc1ccc(/C=C2\N=C(N3CCCCC3)NC2=O)cc1,> 100 µM,

SMILES,TGI,GI50
COc1ccc(C(C#N)NC23CC4CC(CC(C4)C2)C3)cc1 (centres undefined),> 100 µM,
O=C1OC(CCCN2CCCCC2)(c2ccccc2)CC12CCCC2 (centres undefined),> 100 µM,
CC(=O)Oc1c(C)c(-c2ccccc2)c(C)c(-c2ccccc2)c1C(=S)c1ccccc1,> 100 µM,
Cc1c(-c2ccccc2)cc(O)c2nc3ccccc3n12,> 100 µM,
CCN1CCCc2cc3c(C(F)(F)F)cc(=O)oc3cc21,> 100 µM,
O=C(/C=C/c1ccc(O)c(O)c1)OCC(OC(=O)/C=C/c1ccc(O)c(O)c1)C(=O)O (centres undefined),> 100 µM,
CCOC(=O)CCC(NC(=O)c1ccc(Nc2nc3ccc(C(F)(F)F)cc3nc2-c2ccccc2)cc1)C(=O)OCC (centres undefined),> 100 µM,
N[C@H](C(=O)O)[C@@H]1CC(Cl)=NO1,> 1000 µM,
CNC(=O)OCc1c(COC(=O)NC)c(-c2ccc(-c3ccccc3)cc2)n(C)c1C,4.87 µM,
COc1cc(C2c3cc4c(cc3OC(C)(N3CCCC3)C2C)OCO4)cc(OC)c1OC (centres undefined),> 17.6 µM,
CC1(O)C(C)(O)C2(C)O[Te]3(OC12C)OC1(C)C(C)(O)C(C)(O)C1(C)O3 (centres undefined),> 100 µM,
O=C(Nc1cccc(O)c1)C(=O)C1C(=O)NC(=S)NC1=O,> 100 µM,
C=C(C)C1CC2(C)C(C)CC(O)CC2C(OC(=O)C=C(C)C)C1O (centres undefined),> 100 µM,
O=c1oc2ccccc2c(Nc2ccc3c(c2)Sc2ccccc2O3)c1[N+](=O)[O-],62 µM,
CC(C)(C)C1CCC(=O)/C(=C/CC2CC(=O)N(c3ccccc3)C(=O)C2)C1 (centres undefined),44.1 µM,
CN(C)CCNC(=O)c1cccc2c(=O)c3ccccc3oc12,84.4 µM,
O=C(/C=C/c1ccccc1)Nc1ncc(Cc2ccccc2Cl)s1,> 100 µM,0.776 µM
NCCCNCCS,> 100 µM,
Cc1ccc(-n2[nH]nc(C(N)=O)c2=O)cc1,> 100 µM,
COC(=O)C1=C(OC(=O)/C(=C/c2ccccc2)c2ccc(Cl)cc2Cl)C(C(=O)OC)[C@@]2(O)[C@@H](C(=O)OC)[C@H](C)C[C@@H]1[C@@H]2C(=O)OC (some centres undefined),> 100 µM,
CCOC1C(Br)Cn2c(=O)c3cc4ccccc4cc3c(=O)n2C1C (centres undefined),> 100 µM,
C=CC[C@]1(/C=N/O)CN(S(=O)(=O)CC[Si](C)(C)C)C[C@H]2CC=CC[C@H]21,69.8 µM,
CNC(=O)OCc1nc(SSC(C)(C)C)n(C)c1COC(=O)NC,31.5 µM,
O=C1C=C(C2OC(CO)C(O)C2O)C(=O)N1 (centres undefined),> 100 µM,

SMILES,TGI,GI50
OCC12C=CC(C1)c1ccccc12 (centres undefined),> 100 µM,
O=C1C2=Cc3ccccc3OC2(O)Oc2cc3ccccc3cc21 (centres undefined),> 100 µM,
CNc1ncccc1Nc1cc(=O)n2c3cccnc3n(C)c2c1,> 100 µM,
CC1(C)[C@@H]2CC[C@]1(C)[C@H](OC(=O)CSC#N)C2,> 100 µM,
COc1ccc(NC(=O)CC/C(CC(=O)c2ccco2)=N/NC(=O)C(N)=O)cc1,> 100 µM,
COC(=O)[C@@H]1C[C@H]2OC(=O)CC[C@]2(C)O[C@H]1[C@H]1O[C@@](C)(O)CCC[C@H]1C,> 50 µM,
C=C1c2c(C)nn(-c3ccc(C#CCOC4OC(CO)C(O)C(O)C4O)cc3)c2N(C)C23C[C@H]1C1(C)c4c(C)nn(-c5ccc(C#CCOC6OC(CO)C(O)C(O)C6O)cc5)c4N(C)C(C)(C[C@H]12)C3 (some centres undefined),3.75 µM,1.76 µM
O=C(O)CSCCc1ccccc1,> 100 µM,
O=C1/C(=C\c2ccc([N+](=O)[O-])cc2)N(S(=O)(=O)c2ccccc2)c2ncccc21,> 100 µM,
C#CC1(O)C(COP(=O)(O)OCC(COP(=O)(O)OCC2OC(n3cc(F)c(=O)[nH]c3=O)CC2O)OCCCCCCCCCCCCCCCCCC)OC(n2ccc(N)nc2=O)C1O (centres undefined),> 23 µM,0.69 µM
COc1ccc(C=O)cc1O[Si](C)(C)C(C)(C)C,> 100 µM,
Cc1ccc(C2=C(c3ccc(C)cc3)C3(c4ccc(C)cc4)C4C(=O)OC(=O)C4C2(c2ccc(C)cc2)S3=O)cc1 (centres undefined),94.4 µM,28.7 µM
CCC1=CCN(c2cc(C)ccn2)OC1c1ccc(OC)cc1 (centres undefined),> 100 µM,
Cc1ccc(C2(O)CSC(=NC34CC5CC(CC(C5)C3)C4)N2C(P(=O)(O)O)P(=O)(O)O)cc1 (centres undefined),> 100 µM,
COc1ccc2c(c1)CN1C(=N2)CSC1c1cccc(Br)c1 (centres undefined),> 100 µM,
O=S(Cc1ccccc1)c1nc2ccccc2nc1-c1cccs1 (centres undefined),30.1 µM,
COc1ccc(-c2c(C(C)=O)c(-c3ccccc3)n(C3OC(CO)C(O)C(O)C3O)c(=S)c2C#N)cc1 (centres undefined),> 100 µM,
COc1cccc2c1C(=N)c1c(O)c3c(c(O)c1C2=O)C[C@@](O)(C(C)=O)C[C@@H]3O[C@H]1C[C@H](N)[C@H](O)[C@H](C)O1,9.92 µM,2.16 µM
CC(C)(C)c1cc([N+](=O)[O-])cc([N+](=O)[O-])c1O,> 10 µM,
O=C(O)c1ccc(CN2CCC(CN[C@@H]3C[C@H]3c3ccccc3)CC2)cc1,> 100 µM,> 100 µM
Cc1cc(C)c2c(=O)cc(-c3cccc4ccccc34)[nH]c2n1,> 100 µM,
O=C(O)CCC1CCc2cccc(O)c2C1=O (centres undefined),> 100 µM,
COc1ccc(Cn2c(=O)c(OC)c(C)c3cc4ccccc4cc32)cc1,> 100 µM,
